Data published in the supplement of paper PMC10126150.
Sequences with one replicate were seen in a single cluster, so their values are uncertain.

System: ATP
Assay: switch fluorescence ratio, 500 uM ATP over buffer (Cy3 cluster intensity, sum of 5 cycles each) (fold (ratio)); higher = stronger signal-on switching upon ATP binding; sequences stand for … in TCGTCGGCAGCGTCAGATGTGTATAAGAGACAGTTTTTTTTTTTTTTTTTTTTTTTTT…TC
Settings: aptamer strand: ATP DNA aptamer (quencher-CACCTGGGGGAGTATTGCGGAGGAAGG + anchor), 100 nM annealed; ATP concentration: 500 uM; one replicate
Procedure, shortened: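 After annealing to 100 nM quencher-labelled ATP aptamer, Cy3-labelled switching-strand clusters on a modified Illumina MiSeq flow-cell were imaged in selection buffer. A second image followed after 15 min with 500 uM ATP at 22 °C, and five such buffer/ATP cycles were done, each separated by NaOH stripping and re-annealing. The fluorescence ratio, averaged per switch-domain sequence, is summed target-cycle over summed buffer-cycle Cy3 intensity per cluster, with clusters outside 100-1000 RFU excluded.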
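Note: ATP exposure 15 min at 22 °C before imaging.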

Sequence	switch fluorescence ratio
AGCTATCCGG	0.989
TCTTATGGGC	0.989
AACTAACCCG	1.1
TGCTCCCCGA	1.06
ATTTAGGCCG	1.14
TTGCGAGGAA	0.998
CCGGCCAATT	2.71
ACTAGCGTAC	2.4
AGGGGAGCTC	1.01
AGGAGTGGCT	0.991
AAGTATCTAA	0.999
TATTCGACTG	0.858
CTGAAAATTT	0.847
AATTCTGCCC	1.03
TGTCGGGGGC	0.99
CGAGGGGT	1.02
AACTTAGGAG	1.01
GTGCTGTCGT	0.987
GCTTGGTTGT	1.02
CTCGCTATGA	1.65
CGAATGTTAA	0.979
CTACGTCGGT	1.14
CAAGGTATGC	1.01

Sequence	switch fluorescence ratio
TGCTAGGGAG	0.998
TTAACGTTCT	0.95
AAGGGCTGAC	1.09
TCGGCGGTG	0.996
GCCAACCCAT	0.97
TTGATAGTCT	0.873
GTATTTGGTA	0.997
AGTTGTGGAC	1.01
CTCCGTGCGT	2.21
ACTACAGCCC	1.2
ACACCGCTCA	1.76
GACGTTTGTT	1.44
TACCTCGACA	1.15
ACGTGCCATG	0.967
TCGGAGACT	1.02
GACCTTATAG	1.03
GATAAATTTA	0.99
GTGAGAATGA	1.09
TTTCAGATCA	0.973
GAAGGACACG	0.968
AGACTTATTC	1.04
TTGCCACATT	0.982
CATCACGGTG	1.2

Sequence	switch fluorescence ratio
TTTATTAAGC	0.984
TGGCCCTGA	1.01
GGTCCAGCTT	0.991
GACAATTGTT	1.04
GATTACGATA	1.13
GATGTGACTT	1.02
CAAGTGGTA	0.977
TTTATCCTAA	0.98
CTCTCTATAG	1.28
GTCACCCAAG	1.08
TTCGTGCGTG	0.979
ATGTGCCTTT	1.01
ATCAGGGTAG	0.964
GTGATTCAGA	0.995
TAGAATTTAA	1
TTTGCACTAC	4.54
ACCACAGATT	1.02
AGCGGCCCAT	0.977
GCGACGGATT	1.18
AAAATTTAT	1.01
TGTGTACTCG	0.984
CGTATAGTCA	1.01
AGCGGCTCAT	1.03

Sequence	switch fluorescence ratio
TTGCCCCCCG	0.996
GGAGGCAACC	1.05
AAAGATGGTT	1.06
TGCTTGGCC	0.977
GTATAAGGCC	1
CAAGGTACCG	0.983
GAAACTGGGA	0.983
TCTTAGGAAA	0.919
TTCGCATGGT	1.17
ATTACTTCTA	1.05
TAAAGACA	0.974
ACATGGGTTC	1
ACGAACAGTG	1.17
TCTGCACCCG	1.07
CACGTCGGGG	0.988
CTGTCTAGTT	0.997
GCATCAAACA	1
TTTTGAGTA	1.01
TGGGCTTCGA	1.02
ACTTAAGATT	1
CGAACAGTCC	1.05
GAAGCAGCTA	1.17
CCAGCATTCG	1.18

Sequence	switch fluorescence ratio
CTATCTTATT	0.986
CGAGGAGTAT	0.983
TCCAACTCAG	1.05
AGTGGCCCCT	1.01
TAGTCTTTCG	0.995
GCTACTCAAG	1.06
TCAGGAGGGT	0.971
AAAGATAAGA	0.98
AGATTCGCAT	1.1
TTTGAACGGT	0.995
ACGTGGGATG	1.03
CGAATCCAAA	1.05
AAAGTGCGAA	0.947
GCAAATAGTA	0.976
TATTTGCCGC	1.01
AAGGGCATCG	0.999
TAACGGGCGC	1.04
TACACAATGT	1.08
AAGTATTTCT	1.04
CTTGGTCAAC	1.04
TAACATCGC	0.982
TAGACATAT	1.02
GCCCTGGGGG	1.05

Sequence	switch fluorescence ratio
AGTGGTATTG	0.99
GAAACGCTAA	1.14
GTAAGATAAG	1.03
GGTGAGTAAG	0.989
AGGAGAGCCG	1.04
GGTGGGGTAC	0.994
AGAGTAGACT	1.05
ATGGCCGCTG	1.03
AGTTCGAGTA	0.979
ACGTAGGATG	0.931
AGTTGGTGAC	0.992
ACTACATCCG	1.25
ATCGTACCAC	1.01
GCCCTACTCA	1.13
GGCTCAAAAC	1
GATCTAGGCG	1.16
AGTCTGATTA	0.942
TCACCGCTTC	4.48
GCTTGTAGGT	0.984
CTACTATCC	1.76
TGACGAGCCT	1.09
CGTTCATGTA	0.929
ATTGCGGTCC	1.04

Sequence	switch fluorescence ratio
GCATGCGCCT	1.06
AGGGGCCTGG	1.03
GTTGCAATTG	1
AGGTGTATAG	1.02
GTTGTGGTAG	0.99
AGTCGGATAA	0.964
CTAGCTGT	0.995
GAGTGTCCTT	1.03
AGGCGAAGG	0.998
GACTGTATTC	1.08
TACGCTCCGC	1.31
TGGGGGGGT	0.99
TAGTCGGTT	1
CGTCGCGATG	1.08
TGGTTATCGG	1.01
TATTGCGCTG	0.959
ATTTGGTCGG	0.982
CCGAATTTAG	1.06
GTTGTTCCTC	1.08
